Experimental data: publication PMC4336329 (PLoS ONE, 2015)
Hit rate of the full screen: of about 310,000 compounds, about 14,000 (4.5%) showed an effect of 50% or more. The effect is printed as a negative number. Some of the results follow.

These molecules were tested against human ether-à-go-go-related gene (hERG) potassium channel (human, UniProt Q12809) (assay: primary screen, population patch clamp on CHO cells stably expressing hERG).
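Note: peak tail current of the secondary pulse compared with the same well before compound.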

Chain of human ether-à-go-go-related gene (hERG) potassium channel (Q12809 whole entry, looked up): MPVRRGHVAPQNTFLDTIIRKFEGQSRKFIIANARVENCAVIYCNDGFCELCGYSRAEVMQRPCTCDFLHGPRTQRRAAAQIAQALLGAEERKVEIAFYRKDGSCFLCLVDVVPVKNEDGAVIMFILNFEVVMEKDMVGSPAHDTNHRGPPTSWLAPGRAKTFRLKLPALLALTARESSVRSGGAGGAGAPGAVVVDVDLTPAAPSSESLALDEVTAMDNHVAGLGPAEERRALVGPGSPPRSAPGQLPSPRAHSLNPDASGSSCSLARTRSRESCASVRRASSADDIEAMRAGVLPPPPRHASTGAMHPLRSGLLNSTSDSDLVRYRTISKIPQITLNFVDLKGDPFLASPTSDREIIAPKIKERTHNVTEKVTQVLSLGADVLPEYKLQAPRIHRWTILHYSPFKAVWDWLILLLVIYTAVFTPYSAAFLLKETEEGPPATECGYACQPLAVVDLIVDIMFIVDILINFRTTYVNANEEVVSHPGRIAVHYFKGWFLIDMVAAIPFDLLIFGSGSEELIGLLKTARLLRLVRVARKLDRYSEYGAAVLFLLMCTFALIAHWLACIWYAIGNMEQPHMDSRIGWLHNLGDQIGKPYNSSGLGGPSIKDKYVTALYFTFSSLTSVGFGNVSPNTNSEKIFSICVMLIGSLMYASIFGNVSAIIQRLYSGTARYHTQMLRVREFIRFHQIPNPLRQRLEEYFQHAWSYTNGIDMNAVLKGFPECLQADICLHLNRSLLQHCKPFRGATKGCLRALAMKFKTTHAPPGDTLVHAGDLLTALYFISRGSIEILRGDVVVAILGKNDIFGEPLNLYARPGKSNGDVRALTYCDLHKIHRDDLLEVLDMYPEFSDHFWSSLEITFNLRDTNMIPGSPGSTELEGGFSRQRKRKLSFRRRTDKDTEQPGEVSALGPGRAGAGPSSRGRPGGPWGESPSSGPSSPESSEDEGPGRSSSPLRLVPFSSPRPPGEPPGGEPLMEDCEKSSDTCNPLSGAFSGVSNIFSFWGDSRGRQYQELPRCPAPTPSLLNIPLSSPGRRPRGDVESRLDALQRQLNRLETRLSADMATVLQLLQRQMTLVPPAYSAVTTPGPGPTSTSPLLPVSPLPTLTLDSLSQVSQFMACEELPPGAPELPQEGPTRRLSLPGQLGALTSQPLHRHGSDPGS

SMILES | hERG current change (%, negative = inhibition) at 10uM [%]
Cn1c(SCC(=O)C(C)(C)C)nnc1-c1ccccn1 | -2.93
COc1ccc(-c2nnc(NC(=O)c3ccc(S(=O)(=O)N4CCCc5ccccc54)cc3)o2)cc1 | 0.175
CCc1ccc(-c2nc(CN3CCC(C(=O)NCCN(CC)c4ccccc4)CC3)c(C)o2)cc1 | -69.5
Cc1ccc(C(=O)N2CCSCC2)cc1 | -11.3
Cc1noc(C)c1C(=O)OC(C)C(=O)Nc1ccc(C(N)=O)cc1 (centres unmarked) | -10.5
O=[N+]([O-])CC(=Nc1ccc(Cl)cc1)N/N=C\c1oc(O)c2ccccc12 | 5.58
COc1ccc(-c2cc(C(=O)Nc3ccc(S(=O)(=O)Nc4onc(C)c4C)cc3)c3ccccc3n2)cc1 | 16
Cc1cc(N2CCN(C)CC2)nc2ccc(NC(=S)N3CCN(c4cccc(Cl)c4)CC3)cc12 | 15
Cc1ccc2[nH]c(C(=O)N3CCN(C(c4ccccc4)c4ccccc4)CC3)cc2c1 | 19.7
Cc1cccc(NC(=O)CN2C(=O)NC(C)(c3ccc4ccccc4c3)C2=O)n1 (centres unmarked) | -45
CN(C1CCCC1)C1CCN(C(=S)Nc2cc(F)cc(F)c2)CC1 | -42
Nc1nc(Nc2cccc(Cl)c2)nc(NCc2ccco2)c1[N+](=O)[O-] | 14.2
Cc1ccc(S(=O)(=O)Nc2ccc(-c3nnc(SCc4ccccc4Cl)o3)cc2)cc1 | 12.3
O=C(OCCCN1CCOCC1)c1ccc(O)c(O)c1 | 9.06
CN(C)c1ccc(C(C(=O)NCC2CCCO2)N(C(=O)c2snc(C(N)=O)c2N)c2ccc3c(c2)OCO3)cc1 (centres unmarked) | 8.72
O=C(CN1C(=O)C2CC=CCC2C1=O)NCC(=O)Nc1ccc(F)c(F)c1F (centres unmarked) | 7.55
Cc1ccc(CSc2nnc(-c3ccccn3)n2C)cc1 | -3.39
Nc1nc(SCC(=O)c2ccc(F)cc2)n[nH]1 | 15.5
COc1cc(CC(=O)OC2CCOC2=O)cc(OC)c1OC (centres unmarked) | 12.7
S=C(c1ccc(Cl)cc1)N1CCN(Cc2ccccc2)CC1 | -26.8
Cc1ccc(S(=O)(=O)N2CCN(CC3CC4C=CC3C4)CC2)cc1.O=C(O)C(=O)O (centres unmarked) | 2.29
CCCNC(=O)C(Cc1ccc(I)cc1)NC(=O)c1ccc(C#N)cc1 (centres unmarked) | 8.48
FC(F)(F)c1nc2cc3nc4ccccc4[nH]c3cc2n1 | 15.9

SMILES | hERG current change (%, negative = inhibition) at 10uM [%]
CC(=O)c1cccc(NC(=O)c2cc(=O)c3ccccc3o2)c1 | 12.3
CC1(C)Cc2cccc(OCC(=O)OCC(=O)Nc3cccc(S(N)(=O)=O)c3)c2O1 | 2.33
C=CSc1sc(Cl)c(N(C)C)c1[N+](=O)[O-] | 16.8
Cc1ccc(/C=N/n2c(COc3ccccc3)n[nH]c2=S)cc1 | 24.3
CC1(C)CC(CC(=O)O)C(=O)O1 (centres unmarked) | 7.6
COCc1cc(C)nc(N2CCN(Cc3ccccc3)CC2)c1C#N | -36.7
COc1ccccc1OC(C)C(=O)Nc1ccc2c(c1)n(C)c(=O)n2C (centres unmarked) | 13.2
CCN(CC)S(=O)(=O)c1ccc(C)c(NC(=O)COC(=O)CCC(=O)c2cccs2)c1 | -2.82
Cc1ccc(/C=N/NC(=O)c2ccccn2)o1 | -15.5
CN(C)CCN(C(=O)c1ccc2c(c1)CCCC2)c1nc2c(F)cccc2s1.Cl | -14.6
COc1cccc(/C=C2\SC(=S)N(CCCC(=O)N3CCCCC3)C2=O)c1 | 8.72
Cc1ccccc1OCc1nc2ccccc2c(=O)n1/N=C/c1c[nH]c2ccccc12 | -0.579
COc1ccccc1-c1nc(SCC(=O)Nc2ccccc2)n[nH]1 | -25.7
COCCOC(=O)C1=C(C)NC2=C(C(=O)CCC2)C1c1ccc(N(C)C)cc1 (centres unmarked) | -2.66
Cc1cc(-c2nnc(SCC(=O)Nc3ccccc3C(F)(F)F)n2N)n[nH]1 | 20.4
Cc1nn(C)c(C)c1NS(=O)(=O)c1ccccc1Cl | 4.16
CCC(c1nnnn1Cc1ccco1)N1CCC(C(N)=O)CC1.Cl (centres unmarked) | 12.9
CCN(CC)P(=O)(Nc1ccc([N+](=O)[O-])cc1)c1c(C)nn(CCC#N)c1NC(=O)c1ccc(Cl)cc1Cl (centres unmarked) | 3.17
CCC(C)N1CCCC1C(=O)Nc1c(C)cc(C)cc1C.Cl (centres unmarked) | -2.36
C/C(=N/OCC(=O)NCCCCCCNC(=O)CO/N=C(/C)c1cccs1)c1cccs1 | -20.8
CCc1cc(C(=O)NCCN(C)C)cs1 | -11.2
C/C(=N\NC(=O)CSc1nc2ccccc2o1)c1cccc(O)c1 | -3.71
COC(=O)c1cccc(NC(=S)N2CCN(C)CC2)c1 | 7.81

SMILES | hERG current change (%, negative = inhibition) at 10uM [%]
CCN(CC(=O)N1CCCC1)S(=O)(=O)c1ccc2ccccc2c1 | 5.08
CCC1CCc2c(sc(NC(=O)C3CC=CCC3C(=O)O)c2C#N)C1 (centres unmarked) | -8.14
O=c1[nH]nc(N/N=C/c2ccccc2OC(F)F)c(=O)[nH]1 | 11.4
CCCN(CC(=O)Nc1cc(Cl)ccc1Cl)C(=O)c1ccc2n[nH]nc2c1 | -33.4
C=CCN1C(=O)C(Cc2ccccc2Cl)SC1=Nc1ccc(C(=O)O)cc1 (centres unmarked) | -5.65
Cc1cc(C)cc(NC(=O)CSc2ccc(-c3ccccn3)nn2)c1 | 8.61
CCN(CC)S(=O)(=O)c1cccc(C(=O)NC2=NCCS2)c1 | -5.59
CC(C)COC(=O)NC1c2ccccc2Oc2ccccc21 | -3.65
CC1=Nc2ccccc2/C1=C\c1nc(-c2ccc(F)cc2)oc1O | 21.4
CC(=O)N1CCN(C(=O)CNC(=O)c2ccc(Br)o2)CC1 | 22.2
CC(C)C1Oc2ccccc2C(=O)N(CC(=O)c2ccc3c(c2)OCCO3)C1=O (centres unmarked) | 22.2
Cc1ccccc1OCCn1c(=S)[nH]c2ccccc21 | 12
O=C1c2ccccc2C(=O)c2[nH]cnc21 | 10.4
CCN(CC)C(=O)Oc1ccc(Cl)c2ccccc12 | -12.5
COc1ccc2[nH]c3c(NCc4ccco4)ncnc3c2c1 | -18.1
Cc1nnc(NC(=O)c2ccccc2F)s1 | 14.9
COc1ccc(NC(=O)CCN2C(=O)C3C4C=CC(C4)C3C2=O)cc1 (centres unmarked) | 2.21
Cc1ccc(N(CC(=O)O)C2SC(=O)NC2=O)cc1 (centres unmarked) | 4.69
Cc1cc(C(=O)O)c(CSc2ncn[nH]2)o1 | 14.4
Cc1cccc(N(CC(=O)N2CCN(c3ccccc3F)CC2)S(C)(=O)=O)c1 | -10.7
COc1cc(NS(=O)(=O)c2ccc(NC(=O)/C=C/c3ccc([N+](=O)[O-])cc3)cc2)ncn1 | 14.3
CCOC(=O)c1c(NC(=S)N2CCN(C)CC2)sc2c1CCN(C(=O)OCC)C2 | -2.02
COc1ccc(C(=O)O)c(O)c1 | 3.05

SMILES | hERG current change (%, negative = inhibition) at 10uM [%]
CCOC(=O)CN(C(=O)CNC(=O)c1ccco1)C(C(=O)NC1CCCC1)c1ccccc1OCC (centres unmarked) | 6.54
COc1ccc(CCNS(=O)(=O)CCNC(=O)c2ccc3c(c2)OCO3)cc1OC | 1.47
COc1ccc(NC(=O)NCCCN2CCc3ccccc3C2)cc1 | -69.2
CCOCC(=O)Nc1cc(C(=O)Nc2ccccc2)ccc1Cl | -1.16
Cc1ccccc1C(=O)NNC(=O)c1ccoc1C | -13.4
CSCCC(NC(=O)/C(=C\c1ccco1)NC(=O)c1ccco1)C(=O)O (centres unmarked) | -1.15
Fc1ccccc1N1CCN(c2nnnn2-c2ccccc2)CC1 | -2.42
CCCC(=O)Nc1cccc(NC(=O)c2ccc3c(c2)OCO3)c1 | -52.3
COc1cccc(-c2nn(-c3ccccc3)cc2C(=O)Nc2nccs2)c1 | -2.22
CC(C)c1nnc(NC(=O)C2CCCN(C(=O)Nc3ccc(F)cc3)C2)s1 (centres unmarked) | -1.17
O=C(NNS(=O)(=O)c1ccc(F)cc1F)C1Cc2c(ccc3ccccc23)O1 (centres unmarked) | 16.7
C=CCn1c(=O)c(C(=O)NC2CC2)c(O)c2cc(OC)c(OC)cc21 | 10.5
CCc1cc(=O)oc2cc(C)cc(OCC(=O)NC(Cc3c[nH]c4ccc(O)cc34)C(=O)O)c12 (centres unmarked) | 16.1
O=c1nccc(Nc2ccccc2)[nH]1 | 16.4
O=C(Nc1ccccc1Br)C1CC(=O)N(c2ccc3c4c(cccc24)CC3)C1 (centres unmarked) | 0.563
Cc1cc2c(NC(=O)Nc3ccc(C(F)(F)F)cc3)cccc2nn1 | -2.37
C[C@H]1CN=C(Nc2ccccc2)N1CCc1ccccc1 | -9.89
O=C(COc1ccc2c3c(c(=O)oc2c1)CCCC3)NC(Cc1ccc(Cl)cc1)C(=O)O (centres unmarked) | 5.92
Cc1ccc(S(=O)(=O)NC(CC(C)C)C(=O)Oc2ccc3c4c(c(=O)oc3c2)CCC4)cc1 (centres unmarked) | 16.8
CCOc1cc(CN2CCN(S(=O)(=O)Cc3ccccc3)CC2)ccc1OC.O=C(O)C(=O)O | -10.9
